# Results: ChEMBL document CHEMBL4888484, “Replenishing the malaria drug discovery pipeline: Screening and hit evaluation of the MMV Hit Generation Library 1 (HGL1) against asexual blood stage Plasmodium falciparum ,using a nano luciferase reporter read-out” (2022)
# Screen size: about 4,800 compounds; about 410 (8.5%) showed an effect of 50% or more. The list shows a part of the results.
# System: Plasmodium falciparum
# Test: Confirmatory screen in NF54 pLDH assay, in single point, at 2uM, 72h
# Format: functional, Erythrocyte
# Conditions: timepoint 72 hour
row,Compound,% Inhibition [%]
1,O=C(Nc1cccc(C(F)(F)F)c1)S(=O)(=O)c1ccccc1,-15
2,CC(C)C[C@@H]1N[C@H](C(=O)NC2CCCC2)Cc2cn(C)c3cccc1c23,13
3,Fc1ccc(COc2ccc3ccccc3c2CNc2ccc(Br)cc2)cc1,10
4,Cc1cccc(Oc2nc3ccccc3n3c(=O)n(CC(=O)NCc4ccc(Cl)cc4)nc23)c1C,-8
5,Cc1ccc(NCc2ccc(OCc3cccc4ccccc34)c(Br)c2)cc1,11
6,O=C1[C@@H]2[C@H](Cc3c[nH]c4ccccc34)N[C@]3(C(=O)Nc4ccccc43)[C@@H]2C(=O)N1c1cccc(C(F)(F)F)c1,13
7,c1cc([C@@H]2CCCCN2c2nc(C3CC3)ns2)n[nH]1,3
8,Cc1ccc(C(=O)N2CCC(N3C(=O)[C@H]4CCCN4C3=O)CC2)cc1,3
9,Fc1cccc(-n2nc(-c3ccccc3F)cc2-c2ccccc2F)c1,-7
10,CC(C(=O)Nc1nccs1)N1CCCC(c2ccn[nH]2)C1 (stereo not given),45
11,CC(=O)N(Cc1ccc2c(c1)OCO2)c1cccc(-c2nc3ccccc3o2)c1,-4
12,CC(=O)c1cccc(NC(=O)Cc2c(C)nc3nc(C4CCCCC4)nn3c2C)c1,10
13,CCCc1cc(NC(=O)N(CC)CCc2nccs2)n(C)n1,2
14,O=C(CCS(=O)(=O)c1ccc2ccccc2c1)Nc1ncn(Cc2c(F)cccc2Cl)n1,4
15,CCCC[C@H](Oc1ccc(C(C)(C)CC)cc1C(C)(C)CC)C(=O)Nc1ccc(NC(=O)C(F)(F)C(F)(F)C(F)(F)F)c(O)c1,4
16,O=C(O)CCNC(=O)c1ccc(NC(=O)c2cnc(-c3ccsc3)s2)cc1,7
17,CC[C@H]1C[C@@H]1CNC(=O)c1cccc(NC(=O)c2ccco2)c1,-2
18,Cc1nnc([C@@H](NC(=O)Nc2ccccc2F)C(C)C)[nH]1,4
19,CC(C)CC(=O)N=c1nc(S)ss1,10
20,COc1ccc(Cl)cc1NC(=O)Cc1c(C)nc2nc(-c3ccccc3C)nn2c1C,6
21,COc1ccc(C(=O)CN2C=CCC=C2c2nc(-c3ccc(Cl)cc3)cs2)cc1,73
22,CN1C(=O)N(c2cc(Cl)cc(Cl)c2)C(=O)[C@]12CN(c1ccc(C(=O)O)cn1)C[C@H]2c1ccc(C#N)cc1,15
23,COc1ccc(C2=NC3(CCN(Cc4ccccc4)CC3)N[C@H](c3cc(Cl)ccc3O)C2)cc1,9
24,C[C@H]1CCCN(c2nc(-c3ccccn3)nc3ccccc23)C1,98
25,CC(C)N1CCO[C@H](C(=O)Nc2c[nH]nc2-c2ccccc2)C1,-3

row,Compound,% Inhibition [%]
1,CCNC(=O)NCCOC(=O)c1cccc(C)c1Cl,13
2,CCc1c([C@H](C)S(=O)(=O)c2ccccc2)[nH]c(=O)n1Cc1cccs1,-7
3,CCOC(=O)NC(c1ccccc1F)C1CCCCCCC1=O (stereo not given),2
4,Cc1ccccc1Cn1nc2ccc(S(=O)(=O)N3CCOCC3)cn2c1=O,16
5,Cc1ccc(C)c(/C=C/c2nnc(C)o2)c1,-6
6,C[C@@H](Cn1c(=O)[nH]c2ccccc2c1=O)N(C)c1ccccc1,5
7,CCOc1ccc(NC2=NC(=O)[C@@H](C#N)C3(CCN(Cc4ccccc4)CC3)N2)cc1,9
8,Cc1c(CN(C)C(=O)Cn2ncc(Br)c2C)cnn1C,4
9,CC(C)(C)[C@@H](O)CCNC(=O)c1ccco1,9
10,O[C@H](COCc1ccccc1)CN(Cc1c(-c2ccccc2F)noc1N1CCOCC1)C1CC1,8
11,CCc1ccc(C(=O)N2CCCN(c3nc(C4CCOCC4)nc4c3cnn4-c3ccccc3)CC2)cc1,-7
12,O=C(Nc1cc(-c2onc3c2CCCC3)cc(C(F)(F)F)c1)c1cncc(Br)c1,95
13,CC(=O)N(C)CC(=O)Nc1ccccc1NCC1CCCCC1,12
14,O=C(Nc1ccc(OC(F)F)cc1)c1cc(C2CC2)nc2c1c(C1CC1)nn2-c1ccccc1,-5
15,CCn1cc([C@H](CC(=O)N2CCN(Cc3ccc4c(c3)OCO4)CC2)c2cccc(OC)c2)c2ccccc21,2
16,C#Cc1cc(C(F)(F)F)cc(C#N)c1N,8
17,C[C@H]1CN(C(=O)c2cc(Cl)cc(Br)c2F)CCS1(=O)=O,8
18,CC(=O)Nc1cc(C)c(S(=O)(=O)O)cc1C,11
19,O=C(C[C@H]1CCN(C(=O)C2CCC2)C1)NCc1ccccc1,14
20,CN1CCC2(CC1)Nc1ccccc1-c1nc(-c3ccco3)nn12,6
21,Cc1nc2n(Cc3ccc(Cl)cc3)c3ccccc3n2n1,5
22,Cc1ccc([C@H]2C=NN(c3ccc(Br)cc3)C2=O)cc1,22
23,CC(C)c1nc(CN(C)[C@@H](C)C(=O)Nc2nccs2)cs1,23
24,O=S(=O)(c1ccco1)N1CC[C@H](Oc2ccccc2)C1,10
25,O=C(c1cc(-c2ccccc2)n[nH]1)N1CCC(N2CCc3sccc3C2)CC1,27

row,Compound,% Inhibition [%]
1,c1ccc(N2CCN(CCN[C@H]3CCc4cc5c(cc43)CCC5)CC2)cc1,9
2,CCn1nccc1C(=O)N1CC[C@H](CC(=O)N(C)Cc2ccccc2)C1,-2
3,CC(C)OC(=O)N(CCOC(=O)Nc1cccc(Cl)c1)CCOC(=O)Nc1cccc(Cl)c1,-20
4,COc1ccc(N[C@@H](C)C(=O)Nc2nc(C)cs2)c(OC)c1,5
5,CC[n+]1c(/C=C/N(C)c2ccccc2)oc2ccccc21,76
6,CCOCCN(C)Cc1n[nH]c(C)c1C(=O)OCC,-2
7,Cc1ccc(NC(=O)CN2N=C(C(=O)Nc3ccccc3)CCC2=O)cc1,-10
8,COc1ccccc1C(=O)Nc1ccc(N2CCCN(C)CC2)cc1C(=O)O,-6
9,Nc1ccc(Cl)c(NC2=NN(c3c(Cl)cc(Cl)cc3Cl)C(=O)C2)c1,7
10,O=C1c2[nH]nc(-c3cccs3)c2[C@@H](c2cccc(O)c2)N1c1nccs1,5
11,CCOC(=O)c1cc(-c2ccccc2)nnc1Oc1ccccc1,13
12,COc1ccc(C(=O)N(C(=O)c2ccc(OC)cc2)c2c3c(nc4ccccc24)CCCC3)cc1,61
13,Cc1nn(C(F)F)c(C)c1S(=O)(=O)Nc1ncn(Cc2ccccc2Cl)n1,5
14,COC(=O)CN(C(C)C)S(=O)(=O)c1cc(Cl)cc(Cl)c1,12
15,Cc1ccc[n+](Cc2ccc3ccccc3n2)c1,53
16,COc1ccc([C@@H]2CN(S(=O)(=O)c3ccc(OC)cc3)CCN2C)cc1,12
17,COC(=O)CN(CC(=O)Nc1ccc(C)c(C)c1)Cc1cnn(C)c1,-5
18,Nc1nc(-c2ccc(N3CCCC3)cc2)cs1,-11
19,CCCCN1CCN(C(=O)CN2CCN(Cc3ccc(F)cc3Cl)C2=O)CC1,1
20,CCCn1c(C)ccc(-c2noc(CCC(=O)NCc3cccnc3)n2)c1=O,1
21,O=C(NCC1CCOCC1)c1ccc2n[nH]c(=O)n2c1,6
22,Cc1cc(C)cc(-c2nnc(NC(=O)N3CCC[C@@H]3CO)s2)c1,2
23,CCCn1c(C(=O)N2CCOCC2)cc2sccc21,5
24,COc1ccc(-c2nccn3cc(C(=O)N4CCN(c5cccc(OC)c5)CC4)nc23)cc1,-1
25,C=CCS(=O)(=O)NC(=O)c1cc(C)c(C)cc1Cl,7

row,Compound,% Inhibition [%]
1,O=C(CC(c1ccccc1)c1ccccc1)N1CC(=O)N2CCc3ccccc3[C@@H]2C1,6
2,CC1(C)CCC[C@@H]1NS(=O)(=O)c1ccc(C(=O)N2CCOCC2)cc1,8
3,O=C(CC1CCOCC1)N1CCN(C(=O)c2ccco2)CC1,-18
4,CN(C)C(=O)c1cc2c(s1)CC[C@H](C(=O)NCCN1CCOCC1)C2,15
5,Cn1cccc1CNC1CCCCCC1C(N)=O (stereo not given),0
6,C[C@@H]1CN(C(=O)NCCc2ccc(C(F)(F)F)cn2)C[C@H](C)O1,6
7,O=C(NCc1ccc2c(c1)OCO2)c1cccc2c1C(=O)N(C1CCCCC1)C2,-15
8,O=C1C2ON(c3ccccc3)C(c3ccncc3)C2C(=O)N1c1ccc2ccccc2c1 (stereo not given),8
9,C#CCOc1ccc(CCNC(=O)N(C)c2c(C)noc2C)cc1,2
10,Brc1ccc2c(c1)C1CCCCC1N2 (stereo not given),9
11,CC[C@@H](CN(C)Cc1ccccc1)NC(=O)C1CCN(c2nc3cccnc3n(CC)c2=O)CC1,28
12,O=C(Nc1nnc(C2CC2)s1)[C@@H]1Cc2ccccc2O1,5
13,CCN1C(=O)[C@@]2(CC(=O)Nc3c2c(C)nn3-c2ncnc3nc[nH]c23)c2cc(C)ccc21,11
14,O=C(Oc1cccc2cccnc12)c1ccc(-c2ccccc2)cc1,9
15,CC(C)C1(C)CC(=O)N(C(C(=O)O)c2ccccc2)C1=O (stereo not given),-6
16,Cc1ccccc1C(=O)NCC(=O)NCCc1c[nH]c2ccccc12,-9
17,Cc1nn2c(C(F)F)cc(-c3ccc4c(c3)OCO4)nc2c1Cl,4
18,Cc1ccccc1C(=O)Cc1ncc[nH]1,53
19,O=C(Nc1ccc(Cl)c(Cl)c1)Nc1ccc(Cl)cc1NC(=O)Nc1ccc(Cl)c(Cl)c1,65
20,CC[C@H]1CN2C=NC(N3CCN(C(=O)Nc4cc(F)cc(F)c4)CC3)=CC2=N1,46
21,Cc1ccccc1S(=O)(=O)c1cc2cc(Br)cc(Br)c2nc1N,9
22,C=CCNC(=O)c1cc(Br)cc(Br)c1OC,13
23,CCOCCc1nc(-c2ccccn2)c(CCOCC)nc1-c1ccccn1,8
24,C=CCNC(=NC)NC1CCN(c2cc(OC)cc(OC)c2)CC1,7
25,O=C(c1ccccc1COC1CCOCC1)N1CCC[C@H](c2nnc[nH]2)C1,5
